According to the supplement of paper PMC4166925:
± gives the standard deviation of the averaged measurements. The full ranking holds about 33,000 sequences; the median of “E-score (dimensionless, -0.5 to 0.5)” is about -0.049, and the highest 2% start at about 0.37. Some of the results follow.

test system: T1, PmTbr T-box DNA-binding domain (GST fusion); test: PBM E-score of 8-mer (E-score (dimensionless, -0.5 to 0.5)); Tbr is Tbrain of the sea star Patiria miniata (Pm) or the sea urchin Strongylocentrotus purpuratus (Sp); higher = stronger binding preference; most listed sequences are background and not binding sites; conditions: the construct has about 5 more residues each side
T1 sequence: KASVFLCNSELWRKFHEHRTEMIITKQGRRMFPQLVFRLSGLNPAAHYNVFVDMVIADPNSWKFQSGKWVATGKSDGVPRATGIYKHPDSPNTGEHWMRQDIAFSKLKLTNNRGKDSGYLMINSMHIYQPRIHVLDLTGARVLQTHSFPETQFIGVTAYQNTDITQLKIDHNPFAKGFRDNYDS
Description: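 Universal protein-binding microarray (Agilent AMADID 016060, 60-bp probes with a 35-bp variable region) incubated with 200 nM GST-fused Patiria miniata Tbr T-box DNA-binding domain (residues 272-466) in PBS pH 7.5. Scored for every ungapped 8-mer (given with its reverse complement) by the Universal PBM Analysis Suite as E-score (modified Wilcoxon-Mann-Whitney enrichment, range -0.5 to 0.5; >0.45 counts as bound) and Z-score of median probe intensity. Two replicate arrays (datasets 1 and 2).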
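Note: 200 nM protein in PBS on universal arrays averaged over duplicate arrays.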

Sequence | PBM E-score of 8-mer
CGGGGGTA | -0.311 ± 0.064
CCCGAAAA | -0.308 ± 0.032
AGGCTAAT | -0.301 ± 0.0091
CACGCTTA | 0.163 ± 0.0077
AATGCTGT | -0.0806 ± 0.046
GCCTGCCA | 0.177 ± 0.0076
CATGTACC | -0.136 ± 0.0026
ACTGTAAA | 0.0546 ± 0.023
AAACCAAA | -0.223 ± 0.015
CATAAGAC | -0.1577 ± 0.00067
ATGGGTAG | 0.0295 ± 0.059
TGACCGAA | 0.156 ± 0.024
ACCCGGAG | 0.222 ± 0.074
GAGGATTA | -0.00387 ± 0.068
GCCGACAC | 0.382 ± 0.03
GAACTTGC | 0.0599 ± 0.089
CTTCGATA | -0.00351 ± 0.034
GGCAGTAA | -0.113 ± 0.0066
GCAGCACA | -0.0627 ± 0.01
ATCGACTC | -0.162 ± 0.051
AGTCATCA | 0.0394 ± 0.017
AGCCCAAC | -0.194 ± 0.0054

Sequence | PBM E-score of 8-mer
CGTCGCAG | -0.0808 ± 0.038
ACGTAACC | -0.1962 ± 0.00011
GGATGGTA | -0.326 ± 0.036
GGACATTA | -0.325 ± 0.06
CAATGATG | -0.0571 ± 0.053
CCCGGTGA | -0.158 ± 0.089
ACTGACCG | -0.137 ± 0.05
CATCTTGA | -0.00594 ± 0.0059
GGAGATAC | -0.218 ± 0.053
CGTGACAA | 0.407 ± 0.025
CTTCCCGA | -0.104 ± 0.0081
ATCTTGAG | -0.101 ± 0.058
CAGGGCGA | 0.077 ± 0.062
GGGACGAA | -0.15 ± 0.018
AACGCATT | 0.0844 ± 0.015
CCCCTCCC | -0.129 ± 0.035
AATCAAGA | -0.13 ± 0.1
TAAAAGTA | -0.268 ± 0.1
ATGGCCCA | -0.141 ± 0.031
GATTTCAA | -0.162 ± 0.0023
TGATAAAA | 0.237 ± 0.13
ATGATTAG | 0.0104 ± 0.0076

Sequence | PBM E-score of 8-mer
ATAGGACG | -0.393 ± 0.058
GGCTACCA | -0.118 ± 0.057
AGCCACCT | 0.147 ± 0.0018
CGTTACGA | -0.02191 ± 3.5e-05
GCATGCGA | -0.068 ± 0.09
GCCGTGAC | 0.159 ± 0.059
GGTTCTGA | -0.248 ± 0.0068
CGGAGCAA | -0.16 ± 0.062
CTCTTACA | -0.0415 ± 0.056
CGGATCTA | -0.106 ± 0.064
ATGTAAAC | -0.0081 ± 0.034
ACACGCCA | 0.229 ± 0.044
ACTCCCGC | 0.103 ± 0.015
GTTCGCCA | 0.0565 ± 0.041
AAAGGACT | -0.249 ± 0.057
GCCCGCAA | -0.0729 ± 0.021
CATCAAAA | -0.139 ± 0.11
ACAGATAT | 0.0285 ± 0.11
AAACTAAG | -0.159 ± 0.016
ACGTTTCG | 0.243 ± 0.043
ATCATCAT | -0.128 ± 0.0047
GAATAGGA | -0.106 ± 0.0079

Sequence | PBM E-score of 8-mer
ACTAAAAC | -0.11 ± 0.062
TACGAAAA | -0.0185 ± 0.0061
AGCTGTCC | 0.0286 ± 0.0092
GGGTGTCA | 0.472 ± 0.0071
AGAGTTTG | -0.0142 ± 0.079
TACGCCTA | 0.129 ± 0.025
CGTCACCA | 0.27 ± 0.054
AAACCTGC | -0.00686 ± 0.067
CCCCGACC | -0.11 ± 0.008
CGGCAACA | 0.148 ± 0.0064
AATAATGC | -0.0339 ± 0.11
TAGAGCGA | -0.0269 ± 0.063
CGGGACGA | -0.26 ± 0.016
ACTTAAGC | 0.0905 ± 0.0083
AAAAAGAG | -0.235 ± 0.028
AGACCGAG | -0.214 ± 0.024
GCGAATAA | 0.238 ± 0.0033
AAGTCCAG | -0.236 ± 0.0018
CCAGGGCC | -0.00681 ± 0.087
GGAATGGA | -0.271 ± 0.077
